In all, about 33,000 sequences were measured (“E-score (-0.5 to 0.5)”: median about -0.011, highest 2% from about 0.28 on). Some of the results follow.
molecular target: T1, Gcr1 (UniProt P07261); assay: PBM E-score (8-mer binding enrichment) (E-score (-0.5 to 0.5)); higher = stronger / more preferred TF binding; most listed sequences are background and not binding sites; settings: protein concentration: 100 nM; construct: GST-full length
T1 sequence: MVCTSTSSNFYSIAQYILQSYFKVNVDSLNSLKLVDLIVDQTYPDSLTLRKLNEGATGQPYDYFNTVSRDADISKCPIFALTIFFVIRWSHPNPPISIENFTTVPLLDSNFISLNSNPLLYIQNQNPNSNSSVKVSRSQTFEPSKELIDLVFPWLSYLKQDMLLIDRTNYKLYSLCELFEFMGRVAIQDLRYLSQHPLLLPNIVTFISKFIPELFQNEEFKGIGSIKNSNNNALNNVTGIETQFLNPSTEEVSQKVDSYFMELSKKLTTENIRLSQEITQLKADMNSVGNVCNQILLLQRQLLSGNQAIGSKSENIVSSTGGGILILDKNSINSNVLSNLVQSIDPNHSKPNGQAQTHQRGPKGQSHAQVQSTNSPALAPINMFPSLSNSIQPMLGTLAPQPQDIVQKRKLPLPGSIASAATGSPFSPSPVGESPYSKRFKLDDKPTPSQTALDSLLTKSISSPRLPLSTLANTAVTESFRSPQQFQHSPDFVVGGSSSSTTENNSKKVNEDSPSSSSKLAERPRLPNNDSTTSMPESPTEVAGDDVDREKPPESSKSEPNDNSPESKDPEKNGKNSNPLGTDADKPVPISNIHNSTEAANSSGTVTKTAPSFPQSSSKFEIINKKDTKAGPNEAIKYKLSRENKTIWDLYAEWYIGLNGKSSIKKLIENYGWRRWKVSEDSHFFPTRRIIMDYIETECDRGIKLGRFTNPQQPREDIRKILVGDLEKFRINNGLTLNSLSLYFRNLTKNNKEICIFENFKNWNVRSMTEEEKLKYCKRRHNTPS
Method in brief: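 Universal all-10-mer Agilent arrays, double-stranded by primer extension on fresh or once-stripped slides, were probed with about 100-200 nM GST-tagged yeast transcription factors made by PURExpress. Fluorescent anti-GST detected bound protein, and masliner normalised the scans. E-scores from the Universal PBM Analysis Suite were given to each ungapped eight-base word pooled with its reverse complement.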

Sequence	PBM E-score
CAAATAGC	-0.214
CGCAAACA	-0.19
CTTATAAA	0.291
ACGCCTGG	-0.0153
GTTTTTTA	0.029
CCATATCA	0.0892
CGACCCGC	-0.304
AGCTTCAT	0.0447
GTACCACA	0.157
CGGGCAAC	0.0558
CATAATAG	0.16
AAGCGAAT	0.0615
AACTTTAC	0.0985
ATGCACCA	-0.036
AGTCTTTC	-0.263
CCTCGGGA	-0.126
AACTACTC	0.0802
CACTCGGC	0.0205
GCTTCTCA	0.299
CCGGTAGG	0.0993
ATAAATGA	-0.119
CGCCTTTC	-0.0709
CGCGTCCA	0.245
GGATACCC	0.0354
AAGATGCA	0.0396

Sequence	PBM E-score
CCGAGTCC	-0.151
AATCCCAT	0.0407
GATCCCGC	0.186
CGAGATCG	-0.147
CCAGCGCC	0.232
AGACGAAA	-0.0121
TAATTGAA	0.228
GCGGCCTA	0.148
AAAATTAA	0.0776
CTTTCACA	-0.0812
AACAAGAG	0.0487
CATGCCAC	-0.109
AGCGGTCC	-0.0259
AATGCCTG	0.0531
TACGTGAA	0.0851
CTAAGGGA	-0.0207
CTACTCAG	-0.0129
AAAGCCGG	-0.101
CACTCGTC	0.00996
AGACATAT	-0.164
GTGATCCA	-0.0936
GAACTACA	-0.104
ACAAGTCT	0.0564
TATCGACA	0.102
CCCGACGG	-0.158

Sequence	PBM E-score
ATAAGTTC	0.0576
CATCACAA	0.0807
TATCGCCA	-0.0946
GAAGGGTC	-0.161
GCCCTTAA	0.0255
AGATAGTA	-0.0414
GGGAGCCA	0.387
CGACATCA	-0.00572
AGCGGCGC	0.116
GAATAACA	0.236
CTCTTAGC	-0.00339
ATGAACTC	0.0442
ATCAGTCA	0.0329
CAGTGCCA	-0.0969
ATCTAGAT	0.0364
ACAAGTCC	-0.16
AGGTTTGG	0.0372
GGCTTTAC	-0.152
ACCGGAGT	0.0988
GTGTACAA	0.035
GACCACTA	0.179
CTCTATGA	-0.226
AGGAGAAA	-0.114
AATAGACA	-0.116
AAATTGCG	0.0671

Sequence	PBM E-score
TCTTTTCA	0.02
GAACGGTC	-0.252
ACGCTCCC	0.138
AAGCCATA	0.161
AATACCAA	0.0734
GGATCAGA	0.0233
GATTAAGA	-0.0974
AACTAATC	0.014
GAGACGGC	-0.158
CGGCACCA	0.245
CTATGTAC	-0.164
AACTGACA	0.0772
GAAGCTTA	0.136
AATATATC	-0.0422
ATTACCAC	-0.0241
AGGAAAAT	-0.0988
TAGGCTAA	0.0133
GTAGTGAA	0.0593
CCAGCACA	-0.106
CGCTCCGC	0.0826
AACCAAAA	0.188
CAGTTCAA	-0.013
ACCCAGGA	0.178
ATTTCTAG	0.0309
CCCACATA	-0.0268

Sequence	PBM E-score
TCTTTGAA	0.189
CACTATCA	0.142
GAACAAAA	0.109
AGAGGTAT	0.196
ACGGTTAA	-0.034
ATGATCGG	-0.0394
GTGTATGA	0.0561
ATTTATGA	0.085
ATCCTTTA	0.225
AATCTGCA	-0.0124
CACAAGTG	-0.0266
CACGCGAA	-0.0166
GAAGGATA	-0.14
ACAGGCGC	0.0503
AGCAGAAG	0.0734
GACGTAAC	-0.0765
AGATTGAC	-0.103
GTGTAGGA	0.0669
CGTTTGAC	-0.114
AAATTATC	0.13
CCGCGAGA	-0.16
CGAGTCAC	-0.0808
GCGGGTTA	0.00542
TCGTATCA	0.155
GAGCGCAA	-0.124

Sequence	PBM E-score
ATTCGGCA	0.043
CATCAAGC	-0.0889
AGTCCAGC	0.00398
AATCCTAC	0.0255
ATTGGGTC	0.126
GTTGAGTA	-0.0516
CTAGCTAA	-0.124
ACCGCTCG	-0.00838
ATTTCTAA	-0.207
AGCGCGAC	0.0874
CCCAGAAC	0.0712
CCATAACA	-0.0834
AGTCTTAA	-0.236
AGTCCCAA	0.00793
CGGAGTTC	-0.0447
AATTGTGA	0.0584
CGAGGTTC	0.0985
AGGTTACC	0.113
ATGAAACC	0.164
AACCTTTG	-0.139
GGTTAACC	-0.194
AAGCGTCA	-0.0114
GGCCGCCC	0.117
CGATTCCA	0.178
AACATTCC	-0.13

Sequence	PBM E-score
CTAACCCA	-0.0302
CTTTAGGA	0.249
TGTTGAAA	-0.0142
CGGCCCCC	0.0724
ATCAGCTC	-0.0564
ATGTAGTA	0.156
GCACTGAA	-0.00389
TAAGTCTA	-0.0984
ACGGGATC	0.21
TCCACCCA	0.0516
GAGAGTCA	-0.128
TGTGAGAA	-0.0342
CACGTAAC	-0.161
GCCGCTAC	0.118
AGTATGTG	-0.0667
GAACGGCA	-0.106
CAGCACGA	-0.114
GTTAAATA	0.0652
ACCATCAT	-0.129
ATGAGCTA	-0.0104
AAGCTGTG	0.0238
GGGATTTA	0.0417

Source: the supplement of paper PMC3334620
